Data from PubChem BioAssay AID2546 (National Center for Advancing Translational Sciences (NCATS), 2010).
About 11,000 (3.5%) of roughly 310,000 compounds were called active. This list was built around the results that the source calls inconclusive (neither active nor inactive); the mix of calls is not that of the screen. Calls come from the whole dose curve; as a rule, active = well fitted inhibition curve with a large enough effect; inconclusive = small, poorly fitted or top-dose-only effect, or effect the other way; inactive = flat fitted curve, though single readings scatter. Potencies of inconclusive entries are left out as doubtful fits.

test: VP16 counterscreen qHTS for inhibitors of ROR gamma transcriptional activity; conditions: Drosophila S2 Gal4-VP16 UAS-luciferase, luminescence, 20 h; activity, negative = inhibition: at 53.6 µM (top of the series);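 note: Gal4-VP16 expression switched on by copper sulfate through the metallothionein promoter; nearly all actives have a fitted effect of over 50% in size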
% is set by controls: 0 for no effect and ±100 for the full control effect; potency is the fitted concentration of half-maximal effect; tags give direction and shape of the fitted curve.

Structure (SMILES)	activity, negative = inhibition	Potency
COc1ccc(CCNC2CC(=O)N(CCc3ccccc3)C2=O)cc1OC (centres undefined)	inactive: 2.86%	
c1ccc(-c2nc3c(ccc4ccccc43)[nH]2)nc1		active: 1 µM
Cc1cccc(/C(N)=N/OC(=O)c2ccc(F)cc2)c1		active: 22.4 µM
S=c1[nH]nc(-c2cccnc2)n1/N=C/C=C/c1ccccc1		inconclusive [inhibitor, partial curve]
Cc1ccc(C(=O)Nc2cc3ccccc3oc2=O)cc1		inconclusive [inhibitor, partial curve]
CC(=O)Nc1ccc(C2=NN(c3ccccc3)C(c3cccs3)C2)cc1 (centres undefined)		inconclusive [inhibitor, single point]
CCCC(=O)c1ccc(N2CCN(C(=O)c3ccccc3Br)CC2)c(F)c1		inconclusive [inhibitor, single point]
O=c1c2ccccc2oc2cc(O)c(C3COCC(CO)C(O)C(O)C3O)c(O)c12 (centres undefined)		inconclusive [activator, single point]
C/C(=N\NC(=O)c1cccc(N/N=C(\C)c2ccco2)c1)c1ccco1	inactive: -4.28%	
NC(=S)C1COc2ccccc2O1 (centres undefined)	inactive: -29.3%	
CCOC(=O)c1sc(Nc2nc3c(OC)cccc3s2)nc1C		inconclusive [inhibitor, single point]
COc1ccccc1NC(=O)/C=C\c1ccco1		inconclusive [activator, single point]
CC(C)c1ccc2c(c1)CC[C@@H]1[C@@](C)(CN)CCC[C@]21C	inactive: -10.9%	
CCNC(=S)N/N=C(\C)c1ccc2c(c1)OCCO2		active: 7.08 µM
Cc1ccc(NC(=O)CC(=O)Nc2ccc(C)c(C)c2)cc1C	inactive: 3.88%	
O=C(COC(=O)CCc1nc2ccccc2n1-c1ccccc1)Nc1ccc(N2CCCCC2)cc1		active: 6.31 µM
C=CCCCN(Cc1ccccc1)S(=O)(=O)c1ccccc1Br		inconclusive [inhibitor, single point]
O=[N+]([O-])c1cccc(S(=O)(=O)Nc2nc3ccccc3nc2Nc2cccc(S(=O)(=O)N3CCCCC3)c2)c1		active: 11.2 µM
Cc1cc(O)ccc1N=Cc1c(C(F)(F)F)[nH][nH]c1=O		inconclusive [inhibitor, single point]
Cn1c(C(C#N)C(=O)Cc2cccc3ccccc23)nc2ccccc21 (centres undefined)		inconclusive [inhibitor, full curve, poor fit]
O=S(=O)(NCCSc1ccccn1)c1ccc(Br)cc1		active: 11.2 µM
Cc1ccc(/C=N/NC(=O)CSc2nnc(-c3ccc(Cl)cc3)n2-c2ccc(Cl)cc2)o1		inconclusive [inhibitor, single point]
CCn1ncc(/C=N\NC(=O)c2ccc3c(c2)c(C)c(C)n3Cc2ccccc2)c1C		inconclusive [inhibitor, single point]
O=C(CSc1nc(-c2ccco2)cc(C(F)(F)F)n1)Nc1ccc(C(=O)N2CCCCC2)cc1		active: 4.47 µM
CN(CCCC(=O)Nc1ccncc1)S(=O)(=O)c1ccc(Cl)cc1		active: 15.8 µM

Structure (SMILES)	activity, negative = inhibition	Potency
CC1CCC2C(=O)N3C(CCC(C)[C@@H]3c3ccc(-c4ccco4)cc3)C(=O)N2C1c1cccc(N2CCCC2=O)c1 (some centres undefined)		inconclusive [inhibitor, partial curve]
CCN(CC)C(=O)CSc1nc2cc3c(cc2c(=O)n1CCCC(=O)NCCc1ccc(OC)c(OC)c1)OCO3	inactive: -13.6%	
COC(=O)C1=C(COc2ccc(C=O)cc2OC)NC(=O)NC1c1cc(C)ccc1C (centres undefined)		inconclusive [activator, single point]
O=C(Nc1nccs1)c1ccccn1		active: 12.6 µM
COc1ccccc1OCCNC(=O)c1cccc(S(=O)(=O)N2CCN(C)CC2)c1	inactive: -8.88%	
CC(=O)Nc1ccc(S(=O)(=O)N2CCN(c3nc(NC4CCCC4)c4ccccc4n3)CC2)cc1		inconclusive [inhibitor, single point]
COc1ccc([N+](=O)[O-])cc1N(CC(=O)Nc1ccccc1C(=O)NC(C)C)S(C)(=O)=O		inconclusive [inhibitor, single point]
CC(=O)Nc1ccc(S(=O)(=O)Oc2ccc(N3C(=O)C4CCCCC4C3=O)cc2)cc1 (centres undefined)		active: 12.6 µM
Oc1ccc(Cn2ccnc2)c2cccnc12		inconclusive [inhibitor, single point]
O=C(CSc1ccc2nnc(-c3cccnc3)n2n1)NCc1ccco1		inconclusive [inhibitor, full curve, poor fit]
O=C(Cc1nc2ccccc2[nH]1)c1ccc(Br)cc1		inconclusive [activator, partial curve, poor fit]
CNC(=O)c1[nH]cnc1C(=O)N[C@@H](Cc1ccccc1)C(=O)OCc1ccccc1		inconclusive [inhibitor, single point]
CNC(=S)/N=C(\Nc1ccc(C)cc1)c1ccccc1		active: 15.8 µM
CN1CCSc2ccc(C(=O)Nc3ccc(Cl)cc3)cc21		inconclusive [activator, full curve]
O=C(NCCCN1CCOCC1)c1cc2c([nH]c3ccccc32)c(-c2cccc(Br)c2)n1		inconclusive [inhibitor, single point]
O=C(Nc1ccccc1C(=O)O)c1ccc(NC(=O)c2ccc(Br)o2)cc1	inactive: 3.03%	
Cc1nc(NC(=O)c2csc3ccccc23)sc1C		inconclusive [inhibitor, single point]
COc1ccc2nc(NNC(=O)c3cc(=O)c4ccccc4o3)sc2c1		inconclusive [inhibitor, single point]
CCn1ccnc1CN1CCc2c([nH]c3ccccc23)C1CC(C)C (centres undefined)		active: 7.94 µM
CC(CCc1ccc(O)cc1)N1CCC(Oc2ccc(C(=O)N3CCCC3)cc2)CC1 (centres undefined)	inactive: 0.094%	
Cc1ccc(-c2nc(NCc3ccco3)c3ccccc3n2)cc1		inconclusive [inhibitor, single point]
Cc1nc(-c2ccc(Cl)cc2)sc1C1(C)CC(c2cccc([N+](=O)[O-])c2)=NO1 (centres undefined)	inactive: 22.2%	
O=C(COc1ccc(Cl)cc1)Nc1nc(-c2cccs2)cs1		inconclusive [activator, single point]
Cc1[nH][nH]c(=O)c1N=Nc1ccccc1Cl	inactive: -2.72%	
N=c1ccn(Cc2c(Cl)cccc2Cl)cc1		active: 10 µM

Structure (SMILES)	activity, negative = inhibition	Potency
C=CSc1sc(Cl)c(N(CC)CC)c1[N+](=O)[O-]	inactive: 4.28%	
COC(=O)c1ccc(C2C(Oc3ccc(OC)cc3)C(=O)N2CCc2ccc(OC)c(OC)c2)cc1 (centres undefined)		inconclusive [inhibitor, partial curve]
C=C1/C(=C\C=C2\CCCC3(C)C2CCC3C(C)/C=C/C(O)C2CC2)CC(O)CC1O (centres undefined)		active: 12.6 µM
FC(F)(F)c1ccccc1NC(=S)N1CCCCCC1	inactive: -6.66%	
COc1ccc(Br)cc1/C=C/c1ccc2cccc(O)c2n1		inconclusive [inhibitor, full curve]
N#C/C(=C\c1cccs1)C(=O)c1ccccc1Cl		active: 7.94 µM
O=[N+]([O-])c1cc(Br)c(O)c(/C=N/Nc2nnnn2-c2cccc3ccccc23)c1		active: 6.31 µM
O=C(c1cc(-c2cccc(O)c2)on1)N1CCOCC1		inconclusive [inhibitor, single point]
CCCC(=O)OCC(=O)Nc1ccccc1Sc1ccccc1	inactive: 4.16%	
Cc1ccccc1OCc1n[nH]c(=S)n1Cc1ccccc1		inconclusive [inhibitor, full curve]
Cc1cccc(C(=O)Oc2ccc(/C=N/NC(=O)c3ccc(O)cc3)cc2)c1		inconclusive [inhibitor, partial curve]
Cc1cc(Nc2ccc3ccccc3c2)n2ncnc2n1		inconclusive [inhibitor, single point]
O=C(NC(=S)Nc1ccccc1)C1CCCCC1		active: 3.98 µM
O=C(CSc1nnc(-c2ccc(Cl)cc2)n1-c1ccc(Cl)cc1)N/N=C/c1ccco1		inconclusive [inhibitor, partial curve]
NC(=O)c1ccccc1N/C=C/C(=O)c1ccc(F)cc1		inconclusive [inhibitor, partial curve]
COc1ccc(OCc2ccc(C(=O)O)cc2)cc1		inconclusive [inhibitor, single point]
Cc1ccc(-c2cc3c(nn2)-c2ccccc2C3=O)cc1		active: 2 µM
CC(=O)Nc1ccc(N2C(=O)c3ccc(C(=O)Nc4nnc(SCc5ccc(F)cc5)s4)cc3C2=O)cc1	inactive: -5.33%	
O=C(C1CCCO1)N(c1ccc(F)cc1)C1C=CS(=O)(=O)C1 (centres undefined)		inconclusive [activator, full curve, poor fit]
CC1=C(C(N)=O)C(c2ccc3c(c2)OCO3)n2nc(-c3cccc(C)c3)nc2N1 (centres undefined)		active: 20 µM
Cc1ccc(N=C(c2cccs2)N2CCOCC2)cc1		inconclusive [inhibitor, single point]
COc1ccc(O)c(-c2cc(-c3ccc(F)cc3)n[nH]2)c1		inconclusive [inhibitor, single point]
CCCOc1ccc(NC(=O)CC2C(=O)N(CC)C(=S)N2CCCN2CCN(Cc3ccccc3)CC2)cc1 (centres undefined)		inconclusive [inhibitor, single point]
CCOC(=O)c1sc(NC(=O)CNCc2ccccn2)c(C(=O)OCC)c1C		inconclusive [inhibitor, single point]
